Results reported in US5196546A, “Selective pyrazoline insecticides and fungicides” (priority 1990, dated 1993).
The name of at least one read-out is uncertain.

How the values were obtained:
Type in all cases: in vivo
[1] = tested on: Aphis fabae; experiment: Aphicidal test, foliar-sprayed nasturtium (Aphis fabae, bean aphid), mortality after 48 hours; details: 500 ppm AI, 48 hours exposure, foliar spray; ranking 0-4
[2] = tested on: Musca Domestica; experiment: Insecticidal test, house fly (Musca domestica), direct spray; details: 500 ppm AI, 48 hours exposure, ranking 0-4
[3] = tested on: wheat leaf rust (Puccinia recondita); experiment: Control of foliar pathogens: wheat leaf rust; details: 500 ppm AI, final readout at 100% leaf infection in control, ranking 0-4

## CN(C)C(=O)OC1=NN(c2ccc(N(C(=O)N(C)C)S(C)(=O)=O)cc2)CC1(C)C [Example 32, 4,4-dimethyl-1-3-(N,N-dimethylcarbamoyloxy)-{4-[N-(N,N-dimethylcarbamoyl)methanesulfonamido]phenyl}-2-pyrazoline]
[1]
  Aphid (% control ranking): 4 (80-100 % Control)
[2]
  Fly (% control ranking): 0 (0-9 % Control)
[3]
  Rust (percentage disease control ranking): 0 (0-9 % Control)

## CN(C)C(=O)OC1=NN(c2ccccc2)CC1(C)CBr (stereo not drawn) [Example 29, 4-bromomethyl-3-(N,N-dimethylcarbamoyloxy)-4-methyl-1-phenyl-2-pyrazoline]
[1]
  Aphid (% control ranking): 4 (80-100 % Control)
[2]
  Fly (% control ranking): 0 (0-9 % Control)
[3]
  Rust (percentage disease control ranking): 0 (0-9 % Control)
